# Data from PubChem BioAssay (NCATS).
# “And” between values parts separate entries of the source, which are not always exact repeats. Identical values can stand only once. The shares of active, inactive and inconclusive entries below differ from those in the screen. Where the call is inconclusive, the potency comes from a doubtful curve fit. The source made the active and inactive calls. Calls come from the whole dose curve; as a rule, active = well fitted curve in the direction sought with a large enough effect; inconclusive = small, poorly fitted or top-dose-only effect, or another doubt; inactive = no such curve, though single readings can be large; an effect the other way counts as inactive or inconclusive.
# Columns and labels:
# [1] = qHTS of pediatric cancer cell lines to identify multiple opportunities for drug repurposing: Primary screen for TC32 cells (AID 1347089); note: nearly all actives have a fitted effect of over 60% in size
# How it was run: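 Luminescent CellTiter-Glo read-out of metabolically active TC32 cells after 48 h compound exposure. Primary: MIPE 11-point, 0.78 nM–46 µM; NPC 8-point, 0.59 nM–46 µM. Confirmatory: 11-point dilutions.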
# [2] = qHTS of pediatric cancer cell lines to identify multiple opportunities for drug repurposing: Primary screen for DAOY cells (AID 1347090); note: nearly all actives have a fitted effect of over 55% in size
# How it was run: (§1)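 Viability measured as metabolically active cells via CellTiter-Glo luminescence following 48 hours of compound exposure, 11-point dilutions in confirmatory testing. 500-1,000 cells/well plated 5 hours before dosing; controls were DMSO and 2.3 µM bortezomib.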
# [3] = qHTS of pediatric cancer cell lines to identify multiple opportunities for drug repurposing: Primary screen for SK-N-MC cells (AID 1347093); settings: SK-N-MC viability, CellTiter-Glo luminescence, 48 h; activity change, negative = cytotoxic: at 46 µM (top of the series)
# How it was run: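 Metabolically active cells were quantified by ATP-dependent luminescence (CellTiter-Glo, 15 min at room temperature) following 48 h treatment. Cells had been plated at 500-1,000 per well and settled for 5 h beforehand.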
# [4] = qHTS of pediatric cancer cell lines to identify multiple opportunities for drug repurposing: Primary screen for BT-37 cells (AID 1347094)
# How it was run: (§2)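 500-1,000 cells/well; 5 h pre-incubation 37 °C/5% CO2; compound pinned; 48 h; CellTiter-Glo, 15 min RT; luminescence. MIPE 11-pt from 0.78 nM, NPC 8-pt from 0.59 nM final. Bortezomib 2.3 µM final as positive control.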
# [5] = qHTS of pediatric cancer cell lines to identify multiple opportunities for drug repurposing: Primary screen for NB-EBc1 cells (AID 1347095)
# How it was run: as §2
# [6] = qHTS of pediatric cancer cell lines to identify multiple opportunities for drug repurposing: Primary screen for U-2 OS cells (AID 1347096); note: nearly all actives have a fitted effect of over 50% in size
# How it was run: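 Viability after 48 h compound treatment at 37C, 500-1,000 cells/well, read as ATP luminescence with CellTiter-Glo. Primary screens used 11-point (MIPE, 0.78 nM-46 µM) or 8-point (NPC, 0.59 nM-46 µM) final concentrations; follow-up screens used 11-point dilutions.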
# [7] = qHTS of pediatric cancer cell lines to identify multiple opportunities for drug repurposing: Primary screen for SJ-GBM2 cells (AID 1347091)
# How it was run: as §1
# [8] = qHTS of pediatric cancer cell lines to identify multiple opportunities for drug repurposing: Primary screen for A673 cells (AID 1347092); settings: A673 Ewing sarcoma viability, CellTiter-Glo ATP luminescence, 48 h; activity change, negative = cytotoxic: at 46 µM (top of the series); note: nearly all actives have a fitted effect of over 45% in size
# How it was run: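 A673 cells (500-1,000 cells/well in growth media) were pre-incubated 5 h at 37 degrees C, then exposed to compounds for 48 h. Viability was read as CellTiter-Glo luminescence; concentration-response curves came directly from the primary screen.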
# Potency is the fitted concentration of half-maximal effect; tags give direction and shape of the fitted curve.
SMILES,Potency [1],Potency [2],Potency [3],Potency [4],Potency [5],Potency [6],Potency [7],Potency [8]
OCCN1CCN(CCCN2c3ccccc3Sc3ccc(Cl)cc32)CC1,"inconclusive: 29.7 µM [cytotoxic, single point]","inconclusive: 26.6 µM [cytotoxic, single point]","inconclusive: 33.5 µM [cytotoxic, single point]","inconclusive: 27.6 µM [cytotoxic, single point]","inconclusive: 11.9 µM [cytotoxic, partial curve]",–,–,–
C=Cc1c(C)c2cc3nc(cc4[nH]c(cc5nc(cc1[nH]2)C(C)=C5CCC(=O)O)c(CCC(=O)OC)c4C)[C@@]1(C)C3=CC=C(C(=O)OC)[C@H]1C(=O)OC,active: 5.87 µM,active: 0.187 µM,–,–,"inconclusive: 0.105 µM [cytotoxic, full curve, poor fit]",active: 0.372 µM,–,–
Cc1ccc(S(=O)(=O)Nc2cc(Cl)ccc2C(=O)Nc2nc(-c3ccccc3)cs2)cc1,inactive,active: 11.8 µM,–,active: 17.2 µM,–,–,–,–
O[C@@H](CNC[C@H](O)[C@H]1CCc2cc(F)ccc2O1)[C@@H]1CCc2cc(F)ccc2O1,"inconclusive: 26.4 µM [cytotoxic, single point]",–,"inconclusive: 37.2 µM [cytotoxic, single point] and inconclusive: 33.5 µM [cytotoxic, single point]","inconclusive: 27.3 µM [cytotoxic, single point]","inconclusive: 16.6 µM [cytotoxic, partial curve, poor fit]","inconclusive: 23.5 µM [cytotoxic, single point] and inconclusive: 13.3 µM [cytotoxic, partial curve, poor fit]","inconclusive: 29.9 µM [cytotoxic, single point]",–
COc1cccc2c1C(=O)c1c(O)c3c(c(O)c1C2=O)C[C@@](O)(C(=O)CO)C[C@@H]3O[C@H]1C[C@H](N)[C@H](O)[C@H](C)O1,active: 0.745 µM,–,–,–,–,active: 13.3 µM,"inconclusive: 0.473 µM [cytotoxic, full curve]",active: 1.06 µM
CC(C)Oc1cc(Nc2nc(N[C@@H](C)c3ccc(F)cn3)ncc2Cl)[nH]n1,"inconclusive: 20.8 µM [cytotoxic, single point]","inconclusive: 7.43 µM [cytotoxic, full curve]",–,–,active: 3.32 µM,–,–,–
COc1ccc(CN2CCN(C(c3ccc(F)cc3)c3ccc(F)cc3)CC2)c(OC)c1OC,"inconclusive: 21 µM [cytotoxic, single point]",–,–,"inconclusive: 24.6 µM [cytotoxic, single point]","inconclusive: 21.1 µM [cytotoxic, single point]","inconclusive: 21.1 µM [cytotoxic, partial curve, poor fit]","inconclusive: 23.7 µM [cytotoxic, single point]",–
O=C(CCCN1CCN(c2ccc(F)cc2)CC1)NC1c2ccccc2CSc2ccccc21 (stereo not given),"inconclusive: 16.5 µM [cytotoxic, partial curve]",–,–,"inconclusive: 17.2 µM [cytotoxic, partial curve]","inconclusive: 5.9 µM [cytotoxic, partial curve]","inconclusive: 5.9 µM [cytotoxic, partial curve, poor fit]","inconclusive: 33.5 µM [cytotoxic, single point]",active: 11.8 µM
CN(Cc1cnc2nc(N)nc(N)c2n1)c1ccc(C(=O)N[C@@H](CCC(=O)O)C(=O)O)cc1,"inconclusive: 0.104 µM [cytotoxic, full curve, poor fit]","active: 26.6 nM and inconclusive: 93.5 nM [cytotoxic, full curve, poor fit]",–,–,–,"inconclusive: 0.0211 µM [cytotoxic, full curve]",–,–
O=[N+]([O-])c1ccc(O)c2ncccc12,active: 13.3 µM,active: 2.66 µM,"inconclusive: 2.11 µM [cytotoxic, full curve, poor fit]",–,–,"inconclusive: 21.1 µM [cytotoxic, single point]",–,–
Nc1c2ccccc2nc2ccccc12,"inconclusive: 29.7 µM [cytotoxic, single point]",–,active: 11.9 µM,active: 8.71 µM,active: 3.76 µM,"inconclusive: 26.6 µM [cytotoxic, single point]","inconclusive: 18.8 µM [cytotoxic, single point]",–
CC1=C(CC(=O)O)c2cc(F)ccc2C1=Cc1ccc(S(C)=O)cc1 (stereo not given),"inconclusive: 33 µM [cytotoxic, single point]",active: 3.72 µM,–,"inconclusive: 30.6 µM [cytotoxic, single point]",active: 18.7 µM,inactive,–,–
CC1(C)O[C@@H]2C[C@H]3[C@@H]4C[C@H](F)C5=CC(=O)CC[C@]5(C)[C@H]4[C@@H](O)C[C@]3(C)[C@]2(C(=O)CO)O1,inactive,–,–,–,inactive,–,inactive,–
C#Cc1cccc(Nc2ncnc3cc(OC)c(OCCCCCCC(=O)NO)cc23)c1,active: 5.23 µM,–,active: 0.0118 µM,–,–,active: 1.48 µM,active: 0.118 µM,–
CCOc1ccc(Cc2nccc3cc(OCC)c(OCC)cc23)cc1OCC,"inconclusive: 21 µM [cytotoxic, partial curve]",–,"inconclusive: 33.5 µM [cytotoxic, single point]","inconclusive: 27.6 µM [cytotoxic, single point]","inconclusive: 33.5 µM [cytotoxic, single point]","inconclusive: 8.41 µM [cytotoxic, partial curve]",inactive,"inconclusive: 33.5 µM [cytotoxic, single point]"
CCCCCCCCCCCCCC[N+](C)(C)C,"inconclusive: 26.4 µM [cytotoxic, single point]",active: 10.6 µM,–,–,–,"inconclusive: 16.8 µM [cytotoxic, single point]",–,–
CCCCCCCCCCCCCCCC[n+]1ccccc1,"inconclusive: 18.7 µM [cytotoxic, single point]",–,–,–,–,–,"inconclusive: 23.7 µM [cytotoxic, single point]",–
CCN1CCN(CC(=O)Nc2ccc(-c3cccc4c(=O)cc(N5CCOCC5)oc34)c3sc4ccccc4c23)CC1,"inconclusive: 1.47 µM [cytotoxic, partial curve]","inconclusive: 1.48 µM [cytotoxic, full curve]",–,active: 4.85 µM,–,"inconclusive: 0.935 µM [cytotoxic, full curve]",–,–
CC(C)=CCC1C(=O)N(c2ccccc2)N(c2ccccc2)C1=O,inactive,–,"inconclusive: 33.5 µM [cytotoxic, single point]",–,–,–,"inconclusive: 29.9 µM [cytotoxic, single point]","inconclusive: 26.6 µM [cytotoxic, single point]"
Nc1ccn([C@@H]2O[C@H](CO)[C@@H](O)C2O)c(=O)n1 (stereo not given in full),inactive,–,–,–,–,–,inactive,–
CN(C)/N=N/c1nc[nH]c1C(N)=O,"inconclusive: 10.5 µM [cytotoxic, partial curve]","inconclusive: 0.531 µM [cytotoxic, full curve, poor fit]",–,"inconclusive: 15.5 µM [cytotoxic, partial curve]",–,inactive,–,–
COc1cc(C=C2CCC/C(=C\c3ccc(O)c(OC)c3)C2=O)ccc1O,active: 0.938 µM,–,–,active: 27.6 µM,"inconclusive: 29.9 µM [cytotoxic, single point]","inconclusive: 26.6 µM [cytotoxic, single point]",active: 23.7 µM,active: 0.266 µM
COc1cc2c(Nc3ccc(Br)cc3F)ncnc2cc1OCC1CCN(C)CC1,"inconclusive: 9.3 µM [cytotoxic, single point]",–,–,–,inactive,–,"inconclusive: 20.9 µM [cytotoxic, single point]",–
CCOc1cc(N2CCC(O)CC2)ccc1Nc1ncc2c(n1)N(C)c1ccccc1C(=O)N2C,active: 23.4 µM,"inconclusive: 1.18 µM [cytotoxic, full curve]",–,–,active: 0.833 µM,"inconclusive: 7.43 µM [cytotoxic, partial curve, poor fit]",–,–
COc1ccc2c3n(c(=NC(=O)c4cccnc4)nc2c1OC)CCN3,"inconclusive: 16.5 µM [cytotoxic, partial curve]",–,–,"inconclusive: 21.7 µM [cytotoxic, partial curve, poor fit]",–,"inconclusive: 18.7 µM [cytotoxic, single point]",active: 18.7 µM,–
Cn1cnc([N+](=O)[O-])c1Sc1ncnc2nc[nH]c12,active: 10.8 µM and active: 10.5 µM and active: 16.5 µM,–,"inconclusive: 24.1 µM [cytotoxic, partial curve, poor fit] and inconclusive: 10.6 µM [cytotoxic, partial curve, poor fit]",active: 994 nM and active: 1.38 µM and active: 1.53 µM,"inconclusive: 1.21 µM [cytotoxic, full curve] and inconclusive: 750 nM [cytotoxic, full curve] and inconclusive: 833 nM [cytotoxic, full curve]","inconclusive: 1.91 µM [cytotoxic, full curve] and inconclusive: 13.3 µM [cytotoxic, partial curve] and inconclusive: 5.9 µM [cytotoxic, partial curve]","inconclusive: 1.21 µM [cytotoxic, full curve] and inconclusive: 1.33 µM [cytotoxic, full curve] and inconclusive: 2.35 µM [cytotoxic, full curve]",–
